To fix the notation:
B1: PhoQ; a variant is named by its letters at X, in order, P23837 (parent)
chain: MKKLLRLFFPLSLRVRFLLATAAVVLVLSLAYGMVALIGYSVSFDKTTFRLLRGESNLFYTLAKWENNKLHVELPENIDKQSPTMTLIYDENGQLLWAQRDVPWLMKMIQPDWLKSNGFHEIEADVNDTSLLLSGDHSIQQQLQEVREDDDDAEMTHSVAVNVYPATSRMPKLTIVVVDTIPVELKSSYMVWSWFIYVLSANLLLVIPLLWVAAWWSLRPIEALAKEVRELEEHNRELLNPATTRELTSLVRNLNRLLKSERERYDKYRTTLTDLTHSLKTPLXXLQXXLRSLRSEKMSVSDAEPVMLEQISRISQQIGYYLHRASMRGGTLLSRELHPVAPLLDNLTSALNKVYQRKGVNISLDISPEISFVGEQNDFVEVMGNVLDNACKYCLEFVEISARQTDEHLYIVVEDDGPGIPLSKREVIFDRGQRVDTLRPGQGVGLAVAREITEQYEGKIVAGESMLGGARMEVIFGRQHSAPKDE

This is one part of the list.

The experiment covers variants of B1. Kind of experiment: enrichment ratio after two sorts for PhoP signalling (ratio (wild type AVST 3.29)); higher = more functional. Particulars: with PhoP (E. coli).
For the variant KKAG, the enrichment ratio was at most 0.25. As to HDCN, the enrichment ratio is at most 0.25. The figure for HEHD is at most 0.25; for VSKP it is at most 0.25. On to MMDW, for which the enrichment ratio was at most 0.25. The figure for RRPD is at most 0.25. The value for TGRD was at most 0.25. Turning to VFQW, the enrichment ratio was at most 0.25. The figure for HETM is at most 0.25. The figure for APGK is at most 0.25; for AENT it is 10.7.

In the case of VYCH, the enrichment ratio is at most 0.25. For the variant PHMT, the enrichment ratio is at most 0.25. The figure for RENP is at most 0.25. The value for RYYK was at most 0.25. With EDAM, the enrichment ratio was at most 0.25. The figure for YCKK is at most 0.25; for GTEK it is at most 0.25.

Regarding FIYI, the enrichment ratio was at most 0.25. The figure for IDIY is at most 0.25; for QYMA it is at most 0.25.

Consider FHYK, for which the enrichment ratio was at most 0.25. The value for RTLP was at most 0.25.

Consider QYFE, for which the enrichment ratio was at most 0.25. For NQVK, the enrichment ratio was at most 0.25. The figure for SGVT is 8.24; for IICI it is at most 0.25.

For LQRV, the enrichment ratio was at most 0.25. The figure for YGKL is 1.12; for TKSR it is at most 0.25; for VEHG it is at most 0.25. The value for TIWM was at most 0.25.

On to FNQI, for which the enrichment ratio is at most 0.25.

Regarding KLRN, the enrichment ratio is at most 0.25. On to EPYW, for which the enrichment ratio is at most 0.25. The figure for TQHK is at most 0.25. The figure for YIMA is at most 0.25.

For RLDA, the enrichment ratio is at most 0.25.

Turning to SYTV, the enrichment ratio was 0.308.

Regarding YHSM, the enrichment ratio is at most 0.25. For the variant GMYH, the enrichment ratio is at most 0.25. The figure for KHRM is at most 0.25; for HHHA it is at most 0.25; for FEIG it is at most 0.25. The value for NMWR was at most 0.25. The figure for NAHV is at most 0.25; for RQCQ it is at most 0.25. For RYTV, the enrichment ratio is at most 0.25.

Turning to AWCM, the enrichment ratio was at most 0.25. Take HQMN: the enrichment ratio was at most 0.25. The figure for NAWY is at most 0.25; for DWDQ it is at most 0.25.

Consider QSPN, for which the enrichment ratio was at most 0.25.

For the variant SMQC, the enrichment ratio was at most 0.25.

For the variant LSFL, the enrichment ratio amounted to 8. The value for VNDY was at most 0.25. The value for TCTL was 20.7.

On to WPAP, for which the enrichment ratio was at most 0.25. The value for NEGR was at most 0.25; that for TASN was 9.06. The value for GISQ was 6.68; that for MPLF was at most 0.25. The figure for FICM is 12.9; for VTRR it is at most 0.25; for RMYG it is at most 0.25. Turning to QFAP, the enrichment ratio was at most 0.25. Consider KHRY, for which the enrichment ratio is at most 0.25.

In the case of AELR, the enrichment ratio came to 7.91. With MQYE, the enrichment ratio was at most 0.25. In the case of YAGA, the enrichment ratio was at most 0.25. The value for NENY was at most 0.25; that for DAYF was at most 0.25. The figure for KTEL is at most 0.25; for NWIA it is at most 0.25; for SHDC it is at most 0.25.

For the variant RRER, the enrichment ratio was at most 0.25. The figure for QQHF is at most 0.25; for EDGT it is at most 0.25; for RDLQ it is at most 0.25. The figure for REHN is at most 0.25; for QKLD it is at most 0.25; for IMPH it is at most 0.25. The value for SASF was 7.56; that for KIRD was at most 0.25.

These data come from a collection of fitness landscapes (doi:10.1126/science.1257360).
